Our source for the binding signal values is paper PMC12136788.

To fix the notation:
T1: UNK ZnF1-6 (called full-length) (human, UniProt Q9C0B0 30-357)
T1 sequence: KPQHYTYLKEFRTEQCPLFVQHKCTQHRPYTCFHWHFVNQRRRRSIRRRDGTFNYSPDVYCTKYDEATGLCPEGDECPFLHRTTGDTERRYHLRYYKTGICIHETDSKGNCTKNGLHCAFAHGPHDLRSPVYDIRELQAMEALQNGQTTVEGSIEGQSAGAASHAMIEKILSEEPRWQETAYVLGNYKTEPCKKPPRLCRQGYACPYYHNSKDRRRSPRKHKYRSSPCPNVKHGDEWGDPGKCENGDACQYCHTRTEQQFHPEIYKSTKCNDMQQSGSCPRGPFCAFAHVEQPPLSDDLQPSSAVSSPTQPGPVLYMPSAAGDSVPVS

B1: ENSG00000124766:be:win_201|CDS|ENSG00000124766|bound_else_gene|NA|bound_elsewhere_windowed (ssRNA)
RNA: GGGAGUUCUACAGUCCGACGAUCGGUGUGGUCGCAGAUCGAGCGGCGCAAGAUCAUGGAGCAGUCGCCCGACAUGCACAACGCCGAGAUCUCCAAGCGGCUGGGCAAACGCUGGAAGCUGCUCAAAGACAGCGACAAGAUCCCCAACAGAGGAUUGAGCAUCA
B2: chr17:18209558:18209659:+|3pUTR|ENSG00000091542|msi1|total|mutant (ssRNA)
RNA: GGGAGUUCUACAGUCCGACGAUCGGCCGCUUCUAUCCACUCAGAUCCUGGAAGGCAGCAAGGUUUUGUGGAUCCCGAUUCAUCCGGAAUGUCUUCUUGUCAGCCAGGCCAGGACCCGGGCUUGCCAAGAGCAGAGGCCCUCCCCAACAGAGGAUUGAGCAUCA
B3: chr7:30424526:30425710:-|three_prime_utr|ENSG00000106100|control|control|control (ssRNA)
RNA: GGGAGUUCUACAGUCCGACGAUCAAACUCCCUAAGUACCCGCUACAAUUCUGCAGAAAAAGAAUGUGUCUUGCGAGCUGUUGUAGUUACAGUAAAUACACUGUGAAGAGACUUUAUUGCCUAUUAUAAUUAUUUUUAUCUGAACAACAGAGGAUUGAGCAUCA
B4: chr4:183512276:183512377:+|3pUTR|ENSG00000168556|unk|FALSE|unique (ssRNA)
RNA: GGGAGUUCUACAGUCCGACGAUCCUGCUUGUUUUGGGAAAAAAAAAUGCUUUUUUUCUCUUCUAGCUCUCCUGUGUGACUUUUAGGCAUGUCAUUUCACCUUGUCUGGGUGUCAGGUCAUUCACCUGUAAAAUGAGUUGGCUUCAACAGAGGAUUGAGCAUCA
B5: chr14:106116634:106116941:-|CDS|ENSG00000211941|control|control|control (ssRNA)
RNA: GGGAGUUCUACAGUCCGACGAUCUGGAUCCGCCAGGCUCCAGGGAAGGGGCUGGAGUGGGUUUCAUACAUUAGUAGUAGUAGUAGUUACACAAACUACGCAGACUCUGUGAAGGGCCGAUUCACCAUCUCCAGAGACAACGCCCAACAGAGGAUUGAGCAUCA
B6: ENSG00000107863:be:win_1051|CDS|ENSG00000107863|bound_else_gene|NA|bound_elsewhere_windowed (ssRNA)
RNA: GGGAGUUCUACAGUCCGACGAUCUACAGUGGACAUUCUGAUGGAAUCUCAAGCAGCAGAUCUCAAGCUGUGGAGGCUCCCUCUGUAUCUGUUAAUCACUAUUCGCCAAAUUCCCAUCAGCACAUAGACUGGAAAAACUAUAAACAACAGAGGAUUGAGCAUCA
B7: chr8:23842440:23842541:-|3pUTR|ENSG00000159167|msi1|total|mutant (ssRNA)
RNA: GGGAGUUCUACAGUCCGACGAUCCCAAUGCGACAAGCCGUUCAUGAGUAUUCCCCGCAAAUUUCUCUCUUUCUUCAGUUCAGCCGAUUUCCUUUUUUCUUUUCUUUUUUUUUUUUUUUUUUUUUGGCUGUGACCUCUUCAAACCAACAGAGGAUUGAGCAUCA
B8: chr1:225494445:225494546:-|3pUTR|ENSG00000154380|msi1|total|mutant (ssRNA)
RNA: GGGAGUUCUACAGUCCGACGAUCUUGGGUGUUCCCUCUUCUUAUUUUCUCUCUGCCCACCUUGACACAGUAACUUCCUCUUACCGUCAAGAUGAUGAUUAAGUGUUUAAUUUUUAUUCCAUUUUGUUCUGCAACACGUUCAGGCAACAGAGGAUUGAGCAUCA
B9: chr2:32414998:32415099:+|CDS|ENSG00000115760|unk|total|mutant (ssRNA)
RNA: GGGAGUUCUACAGUCCGACGAUCCCAUGUUUAUCCGCUGGAGGUUUAUUAACAUAUAAAUCUCCUGCUACCUCACCCAUCCGCCGUAAUUCUCACAGGUCACUGGAUGGUUUAAGCAGAACUCAGGGUGAAAGUAUAUCAGAACAACAGAGGAUUGAGCAUCA
B10: chr1:67426168:67426278:-|CDS|ENSG00000142864|unk|total|mutant (ssRNA)
RNA: GGGAGUUCUACAGUCCGACGAUCAUAAGACGAGUUGGAAGAAGACCUGAUCAACAACUUCAGGGUGAAGGGAAAAUAAUUGACCGAAGACCAGAAAGGCGACCACCUCGUGAACGAAGAUUCGAAAAGCCACUUGAAGAAAAGCAACAGAGGAUUGAGCAUCA
B11: chr10:95311796:95311897:-|3pUTR|ENSG00000095637|unk|FALSE|unique (ssRNA)
RNA: GGGAGUUCUACAGUCCGACGAUCCAGACAUAGAUUUUUCUGUUCAUUUAUUUUUCUUCAUUGCAGUGGAUUGAUUUGAUAAAUAGAUGUGUUGAAUUACUACAUUUGCUGUACAUAUUAUUUAAUAAACUUUAUUCAGAAUUGCAACAGAGGAUUGAGCAUCA
B12: chr18:722677:722778:-|3pUTR|ENSG00000176105|msi1|FALSE|unique (ssRNA)
RNA: GGGAGUUCUACAGUCCGACGAUCCCGCGCCCAGCCUACAUUCACUUCUAAAGUCUAUGUAAUGGUGGUCAUUUUUUCCCUUUUAGAAUACAUUAAAUGGUUGAUUUGGGGAGGAAAACUUAUUCUGAAUAUUAACGGUGGUGACAACAGAGGAUUGAGCAUCA
B13: chr2:32224452:32224765:-|three_prime_utr|ENSG00000091106|control|control|control (ssRNA)
RNA: GGGAGUUCUACAGUCCGACGAUCUCGUGUGAGCAGUGAUGGAUGGCUUGCCUUCAUGGGUGUAUUUGAGAAUCUUAAGCAAUUAGUGUUUUUUGACUUUAGUACUAAAGAAUUUCUACCUGAUCCAGCAUUAGUCAGAAAACUCAACAGAGGAUUGAGCAUCA
B14: chr12:88493871:88493972:-|3pUTR|ENSG00000049130|msi1|total|mutant (ssRNA)
RNA: GGGAGUUCUACAGUCCGACGAUCAAGUAUCUUGACCAUAAAAAGUCAUUGCUGUUCUUGUUUCUAAUGUAAACCGUGUCCAUCCGUAAAAGUGAAAUUCAGUCUUAAGCCGGGUGAAUUGGAUCACCAUUUACACAAGAGAUGCAACAGAGGAUUGAGCAUCA
B15: chr20:32237940:32238012:+|3pUTR|ENSG00000101346|msi1_unk|FALSE|overlapping (ssRNA)
RNA: GGGAGUUCUACAGUCCGACGAUCUUUCAAAGAUACAAAUAUUUACAUAGUUUUAAUCAUGUAAUAUAUACAAUUUAAUGUCCUAGUGUUUUACUUAAUAGUGUAUCAUGUUUUCCCUGUUGGUAUGUAGCCUGGAUAAAUGCUCAACAGAGGAUUGAGCAUCA
B16: ENSG00000136451:be:win_3951|3pUTR|ENSG00000136451|bound_else_gene|NA|bound_elsewhere_windowed (ssRNA)
RNA: GGGAGUUCUACAGUCCGACGAUCGUAUGCAUUCUUUAUUCACUUAAGAAGCUUGUCUGCAAUAAUAAAGCCACGUCAUGUCUUCUUUUGGGAGGGAGAGAGUCGAUGGCAGGAGGGGGUUUUGGGUGGGCCACUGAAAAGGGGCAACAGAGGAUUGAGCAUCA
B17: chrX:115010634:115010735:-|CDS|ENSG00000123496|msi1|FALSE|unique (ssRNA)
RNA: GGGAGUUCUACAGUCCGACGAUCUGGAUCAUCAGAGAACAAGCCUAUCAGAUCCAGUUAUUUCACUUUUCAGCUUCAAAAUAUAGGUGAUGUAAACCAACAAACAACUUCAAAUUCAUUGUUUCUAGUUUAGGCCAUUUACAACAACAGAGGAUUGAGCAUCA
B18: ENSG00000124766:be:win_2701|3pUTR|ENSG00000124766|bound_else_gene|NA|bound_elsewhere_windowed (ssRNA)
RNA: GGGAGUUCUACAGUCCGACGAUCCAACUCAAAUCUGUGCUGGACUUUAAAAAAACAAUUCAGGACCAAAUUUUUUCUCAGUGUGUGUGUUUAUUCCUUAUAGGUGUAAAUGAGAAGACGUGUUUUUUUCCUUCACCGAUGCUCCAACAGAGGAUUGAGCAUCA
B19: chr9:132262671:132262773:-|3pUTR|ENSG00000107290|unk|FALSE|bound_elsewhere (ssRNA)
RNA: GGGAGUUCUACAGUCCGACGAUCUGUGCAUUAUUUGACAUUUCCUUUGUCAUCUGCUUUUUAAGCAAAAAAGGGUUUUGUGUUAGAAAUUCUACUUGAGCAGAUUAUAAAGAGCUUUAAAAAACAACUUUCGGUUGCCAAAAGCAACAGAGGAUUGAGCAUCA
B20: ENSG00000198589:be:win_1251|CDS|ENSG00000198589|bound_else_gene|NA|bound_elsewhere_windowed (ssRNA)
RNA: GGGAGUUCUACAGUCCGACGAUCUGCAUUCACGUACAAUCCACGGGCUACAGAUGCCCAGCUUUGUCUUGAAUCAUCUCCUAAGGACAACCCUUCAAUUUUUGUUCAUUCACCACAUGCACUCAUGCUCCAGGAUGUAAAGGCCAACAGAGGAUUGAGCAUCA
B21: chr17:44352837:44352938:+|3pUTR|ENSG00000030582|unk|total|mutant (ssRNA)
RNA: GGGAGUUCUACAGUCCGACGAUCCUGAAGACUCUGCAGCCCUCGGGACCCCACUCGGAGGGUGCCCUCUGCUCAGGCCUCCCCCGCACCUCCCCCUAACCAAAUUCUCCCUGGACCCCAUUCUGAGCUCCCCAUCACCAUGGGCAACAGAGGAUUGAGCAUCA
B22: chr7:93926053:93926159:+|CDS|ENSG00000127920|unk|FALSE|unique (ssRNA)
RNA: GGGAGUUCUACAGUCCGACGAUCGUCUAAAUGUUCUGAAGAAAUAAAGAACUAUAUUGAAGAACGUUCUGGAGAGGAUCCUCUAGUAAAGGGAAUUCCAGAAGACAAGAACCCCUUUAAAGAAAAAGGCAGCUGUGUUAUUUCCAACAGAGGAUUGAGCAUCA

Some of the results follow.

The test deals with T1, UNK ZnF1-6 (called full-length). The test can be described thus: nsRBNS (natural sequence RNA bind-n-seq); RBNS binding buffer (assumed for nsRBNS): 25 mM Tris pH 7.5, 150 mM KCl, 3 mM MgCl2, 0.01% Triton X-100, 500 ug/ml BSA, 20 U/ml SUPERase-In, 4 C; UNK is unkempt and MSI1 is Musashi-1; names of the RNAs are library labels; protein concentration not given here; high values mean tight binding.
B1 registered a binding signal of 0.523 enrichment R.
The value for B2 was 0.851 enrichment R.
The value for B3 was 3.7 enrichment R.
The value for B4 was 0.423 enrichment R; that for B5 was 1.12 enrichment R; that for B6 was 0.834 enrichment R.
B7 registered a binding signal of 3.66 enrichment R.
As for B8, the figure is 0.642 enrichment R.
Turning to B9, the binding signal is 0.463 enrichment R.
The value for B10 was 0.442 enrichment R; that for B11 was 2.42 enrichment R.
In turn, B12 had a binding signal of 0.894 enrichment R.
In turn, B13 registered a binding signal of 1.98 enrichment R.
As for B14, the figure is 0.19 enrichment R.
As for B15, the binding signal stood at 4.06 enrichment R.
As for B16, the figure is 0.995 enrichment R; as for B17, 0.759 enrichment R; as for B18, 0.605 enrichment R.
The value for B19 was 0.359 enrichment R; that for B20 was 0.398 enrichment R.
As for B21, the figure is 0.732 enrichment R; as for B22, 0.476 enrichment R.
